# Results reported in the BET-seq Pho4 binding data (Le et al. 2018).
# This is one part of the list. These are noisy estimates, calculated here from bound and input reads.
# Target: T1, Pho4 (S. cerevisiae) (UniProt P07270)
# T1 sequence: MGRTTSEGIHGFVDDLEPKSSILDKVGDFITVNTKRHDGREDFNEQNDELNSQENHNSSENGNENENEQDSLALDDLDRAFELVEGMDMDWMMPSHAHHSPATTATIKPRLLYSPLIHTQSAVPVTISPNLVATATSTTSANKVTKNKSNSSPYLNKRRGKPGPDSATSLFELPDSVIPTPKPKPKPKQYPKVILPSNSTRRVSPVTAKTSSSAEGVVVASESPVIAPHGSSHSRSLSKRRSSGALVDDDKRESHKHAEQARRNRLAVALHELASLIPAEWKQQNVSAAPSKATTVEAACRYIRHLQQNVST
# Test: relative binding free energy (BET-seq); higher = weaker binding
# Conditions: reference: library average
row,Sequence,relative binding free energy [kJ/mol]
1,ATGTACACGTGCGGGG,0.0837
2,GTTTACACGTGGTCGA,0.879
3,TATTTCACGTGAATTT,1.59
4,AGTTGCACGTGCTGCT,-0.0837
5,AAGGTCACGTGTATCT,0.46
6,GATAGCACGTGCGGGT,-0.209
7,TTTGCCACGTGTTGGA,0.167
8,TTAGTCACGTGTGGGA,0.795
9,GATGACACGTGGTGAA,0.502
10,TTAGCCACGTGGTTTA,-0.251
11,TATGGCACGTGACTGT,0
12,GTTGGCACGTGTCTGT,0.126
13,TAGCGCACGTGTGTGT,0.502
14,TATTTCACGTGTATTG,0.628
15,CGTCACACGTGTTAGG,0.879
16,TGTGTCACGTGAGCAT,0.92
17,AGTTTCACGTGGACTT,1.34
18,GGATGCACGTGGGACG,0.293
19,CGTTTCACGTGCGAGG,1.26
20,TGAGGCACGTGAGAGC,0.335
21,ATTTGCACGTGCCTGT,-0.46
22,TTTAGCACGTGGATCA,-0.209
23,TTGGGCACGTGTGGTC,0.293

row,Sequence,relative binding free energy [kJ/mol]
1,TGGGTCACGTGAATTT,1.55
2,AAATGCACGTGAGTAG,0.502
3,TGAGTCACGTGACTGT,0.879
4,AGGAGCACGTGAAGTA,1
5,TGATACACGTGAAAGG,1.46
6,GGTCTCACGTGGTTGC,1.34
7,GCACGCACGTGGGTGT,-0.962
8,GGGTGCACGTGGGCGC,-0.502
9,TGAAGCACGTGGTGGC,-0.837
10,AATATCACGTGTTGTA,0.669
11,TGTGGCACGTGGTTAT,-0.669
12,GGGTACACGTGGGCAT,-0.126
13,GTGATCACGTGATATG,0.586
14,GTATACACGTGGTGTA,0.167
15,GGGCACACGTGATGGA,1.17
16,TTGTTCACGTGTCGAC,1.46
17,CAGGGCACGTGCAGTT,-0.335
18,GTATTCACGTGAGTGC,1.42
19,GTTTACACGTGGGGAA,0.126
20,AGTAGCACGTGTGTTA,0.0837
21,CTTGTCACGTGCGGGA,-0.126
22,AATGGCACGTGGAAAT,0.586
23,CTTAGCACGTGGGGGT,-1.17

row,Sequence,relative binding free energy [kJ/mol]
1,TTAGTCACGTGAGTGC,1.51
2,CTGATCACGTGTGTTG,0.46
3,TATTGCACGTGGTTTT,-0.0837
4,GTGTTCACGTGCGATG,1.17
5,GGAGACACGTGCGTGG,-0.418
6,AGATTCACGTGCGGTG,0.795
7,GGTGGCACGTGGAGCG,0
8,TATCTCACGTGAGTTT,1
9,AGGTGCACGTGCGATG,-0.293
10,GTGAGCACGTGCGCGT,-0.92
11,ATCTACACGTGGTGGT,0.293
12,GCGGTCACGTGGCGAG,0.335
13,TATTACACGTGATGGC,1.42
14,TATGGCACGTGGGGAT,-0.753
15,CGGTTCACGTGGGAGT,0.753
16,GGGGTCACGTGCTCGT,0.293
17,ATTGTCACGTGGAAGT,0.795
18,ATCTTCACGTGTAGTT,1
19,TGGTACACGTGTGTAC,0.209
20,GTGTTCACGTGTGACT,0.837
21,TCGCTCACGTGGGTTT,0.628
22,TTGTGCACGTGATTTC,0.418
23,ATCATCACGTGTTTGT,0.586

row,Sequence,relative binding free energy [kJ/mol]
1,AGCGGCACGTGTTGGA,0.0837
2,AGGGTCACGTGTTTGC,0.126
3,ATTGGCACGTGTAATG,-0.0418
4,TTGGGCACGTGAGTCC,0.669
5,CAGTTCACGTGGGATG,0.711
6,TTAACCACGTGATGGG,0.335
7,AGTGGCACGTGGCGTG,-0.586
8,GGCTTCACGTGGGTAG,0.418
9,GGTAGCACGTGGTATG,-0.628
10,CGGTGCACGTGTGAGC,0.753
11,CTAGGCACGTGATTTT,-0.335
12,GGGACCACGTGGGTAG,-0.711
13,AACGGCACGTGGTAGG,-1.13
14,GGGCGCACGTGAATGG,0.669
15,ATCGGCACGTGGCGTT,-0.795
16,CAGGTCACGTGGGGCT,-0.0418
17,TTTCACACGTGTGTGT,-0.209
18,CTGGGCACGTGTAGGG,-0.167
19,TTTATCACGTGCGTAG,0.753
20,TGTAACACGTGAAGGA,1.55
21,TGTAACACGTGTTTAG,0.0418
22,GTTGTCACGTGATGCT,0.753
23,CGGAACACGTGGTTGT,-0.293

row,Sequence,relative binding free energy [kJ/mol]
1,TGGGGCACGTGTGGCC,-0.0418
2,ATGGGCACGTGGATTG,-0.0418
3,TCTTACACGTGATATG,0.879
4,TTGTTCACGTGTAATC,1.34
5,TGGTCCACGTGGGTAT,-0.46
6,ATTCACACGTGTTGTT,-0.46
7,GGTATCACGTGGTTGT,1.21
8,TTTGTCACGTGTTTAT,0.418
9,TTTTGCACGTGAGGAC,1
10,GCATGCACGTGATGGG,0.879
11,GGCTGCACGTGGTATA,-0.335
12,TATGTCACGTGGCCTG,-0.126
13,TGGGCCACGTGAGGCG,0.628
14,GAATTCACGTGTTTGC,1.38
15,ATTACCACGTGGTATG,-0.711
16,GGGGACACGTGGCGTA,-0.251
17,TGATTCACGTGGCTAG,0.962
18,TTAGTCACGTGTATGT,0.502
19,TGAGGCACGTGTAGTG,0
20,TCATGCACGTGAAGTT,1.09
21,CTAGTCACGTGAGTGA,1.42
22,CGTGGCACGTGCATGT,0.126
23,TTGTTCACGTGTCTAT,1.21
